Experimental data taken from US10925971B2, “Methods of treating PRLR positive breast cancer” (Regeneron Pharmaceuticals, Inc., priority 2016, dated 2021).

B1: H1H6783P: fully human anti-PRLR antibody, human IgG1 Fc; HCVR/LCVR SEQ ID NOs 82/90 (antibody, V domains shown)
VH: QVQLQQSGPGLVKPSQTLSLTCAISGDSVSSNTFAWNWIRQSPSRGLEWLGRTYYRSKWYIDYAESVKSRITITPDTSKNQFSLQLNSVTPEDTALYYCAGGYTYAPRGAFDIWGQGTMVTVSS
VL: [sequence of about 100 residues omitted]TFGQGTKLEIK
B2: H1H6807P: fully human anti-PRLR antibody, human IgG1 Fc; HCVR/LCVR SEQ ID NOs 258/266 (antibody, V domains shown)
VH: QVQLVESGGGVVQPGRSLRLSCAASGFTFSDYNMHWVRQAPGKGLEWVAVIWYDGSNKHYADSVKGRFTISRDNSKNTLYLQMNSLRAEDTAVYYCARDGFTIFGMVLDYWGQGTLVTVSS
VL: [sequence of about 100 residues omitted]PFTFGPGTKVDIK

Legend:
[1] = tested on: Macaca fascicularis PRLR (mfPRLR.mmh; SEQ ID NO:403); assay: Surface plasmon resonance (Biacore T200), antibody-capture format; type: binding; conditions: analyte mfPRLR.mmh
Procedure: (§1) Antibodies, expressed as human IgG1 Fc (i.e., “H1H” designations), were captured onto an anti-human Fc sensor surface (mAb-capture format), and soluble monomeric (hPRLR.mmh; SEQ ID NO:401, or Macaca fascicularis (mf) PRLR.mmh; SEQ ID NO:403) or dimeric (hPRLR.mFc; SEQ ID NO:402) PRLR protein was injected over the sensor surface. Measurements were conducted on a T200 Biacore instrument. Kinetic association (ka) and dissociation (kd) rate constants were determined by processing and fitting the data to a 1:1 binding model using Scrubber 2.0 curve fitting software.

[2] = target: T1, dimeric human PRLR (hPRLR.mFc; SEQ ID NO:402) (Homo sapiens, UniProt P16471); assay: as above; type: binding; conditions: analyte hPRLR.mFc
T1 construct: dimeric (hPRLR.mFc)
T1 sequence (P16471 with tags, fused parts or gaps): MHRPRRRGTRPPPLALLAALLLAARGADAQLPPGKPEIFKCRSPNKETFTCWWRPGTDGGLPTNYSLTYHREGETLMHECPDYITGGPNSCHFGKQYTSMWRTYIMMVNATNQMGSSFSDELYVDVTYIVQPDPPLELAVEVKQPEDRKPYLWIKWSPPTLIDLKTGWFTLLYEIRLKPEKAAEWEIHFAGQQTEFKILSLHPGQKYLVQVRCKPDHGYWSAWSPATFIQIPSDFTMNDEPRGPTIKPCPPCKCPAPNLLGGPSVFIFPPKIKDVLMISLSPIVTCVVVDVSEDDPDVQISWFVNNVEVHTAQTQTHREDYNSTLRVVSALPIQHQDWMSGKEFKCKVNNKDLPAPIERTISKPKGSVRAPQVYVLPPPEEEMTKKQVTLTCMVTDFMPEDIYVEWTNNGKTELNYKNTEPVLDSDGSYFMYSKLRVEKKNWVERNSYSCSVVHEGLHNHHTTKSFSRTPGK
Procedure: as §1

[3] = target: T2, monomeric human PRLR (hPRLR.mmh; SEQ ID NO:401) (Homo sapiens, UniProt P16471); assay: as above; type: binding; conditions: analyte hPRLR.mmh
T2 construct: soluble monomeric (hPRLR.mmh); mmh (myc-myc-hexahistidine) (C)
T2 sequence (P16471 with tags, fused parts or gaps): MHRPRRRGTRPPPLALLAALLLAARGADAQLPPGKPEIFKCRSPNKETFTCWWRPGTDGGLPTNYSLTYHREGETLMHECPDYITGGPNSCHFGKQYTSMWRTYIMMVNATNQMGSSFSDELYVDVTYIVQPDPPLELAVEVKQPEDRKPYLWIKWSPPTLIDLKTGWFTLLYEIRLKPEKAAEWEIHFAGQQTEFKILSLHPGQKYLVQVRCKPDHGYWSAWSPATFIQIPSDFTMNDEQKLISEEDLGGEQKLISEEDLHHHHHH
Procedure: as §1

HEK293 parental cells = assay: FACS cell surface binding; parameters: species or system human
Procedure: (§2) The ability of anti-PRLR antibodies to selectively bind PRLR expressing cell lines was next determined. Human, monkey Macaca fascicularis, and mouse PRLR constructs with an HA tag were stably introduced into HEK293 cells via Lipofectamine 2000-mediated transfection methodology. Transfectants (HEK293/hPRLR, HEK293/mfPRLR and HEK293/mPRLR) were selected for at least 2 weeks in complete growth media plus G418.
Cell surface expression of PRLR on 293/hPRLR cells was assessed via FACS analysis. Briefly, 1×10^5 cells were incubated with 10 μg/ml of Control antibody I, or an isotype control for 30 min on ice in antibody dilution buffer. Following two washes with antibody dilution buffer, cells were incubated with 10 μg/ml of PE conjugated anti-human secondary antibodies for 30 min on ice. Following two additional washes, samples were run on a Hypercyt® cytometer and analyzed in ForeCyt™ (IntelliCyt, Albuquerque, N. Mex.). The mean fluorescence intensities (MFI) were expressed as fold change above isotype control levels (background). FACS binding confirmed that Control I selectively bound to 293/hPRLR expressing cells with MFIs that were 30 fold above background (isotype ctrl) levels and less than 2 fold binding on parental cells. […]

[4] = target: T3, human PRLR on HEK293/hPRLR cells (Homo sapiens, UniProt P16471); assay: FACS cell surface binding
T3 construct: HA; expressed in transfected cells; host or cells: HEK293
T3 sequence (P16471 25-622): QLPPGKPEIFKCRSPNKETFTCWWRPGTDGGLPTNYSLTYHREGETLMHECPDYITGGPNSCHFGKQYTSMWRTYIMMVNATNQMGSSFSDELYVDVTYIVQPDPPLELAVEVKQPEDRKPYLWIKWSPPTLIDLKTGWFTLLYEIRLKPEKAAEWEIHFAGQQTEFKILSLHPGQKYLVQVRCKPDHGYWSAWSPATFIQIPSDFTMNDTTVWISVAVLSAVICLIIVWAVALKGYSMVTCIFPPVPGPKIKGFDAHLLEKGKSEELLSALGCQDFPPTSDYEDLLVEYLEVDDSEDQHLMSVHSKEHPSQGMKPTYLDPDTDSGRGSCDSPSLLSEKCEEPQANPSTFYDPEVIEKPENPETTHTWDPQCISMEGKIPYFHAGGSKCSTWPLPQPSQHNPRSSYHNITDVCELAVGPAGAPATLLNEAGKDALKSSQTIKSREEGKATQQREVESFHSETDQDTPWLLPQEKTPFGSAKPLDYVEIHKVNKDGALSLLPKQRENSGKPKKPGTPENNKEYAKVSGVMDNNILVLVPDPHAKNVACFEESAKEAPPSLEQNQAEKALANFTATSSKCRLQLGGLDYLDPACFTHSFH
Procedure: as §2
(§3) Cell surface expression of PRLR on 293/hPRLR cells was assessed via FACS analysis. Briefly, 1×10^5 cells were incubated with 10 μg/ml of Control antibody I, or an isotype control for 30 min on ice in antibody dilution buffer. Following two washes with antibody dilution buffer, cells were incubated with 10 μg/ml of PE conjugated anti-human secondary antibodies for 30 min on ice. Following two additional washes, samples were run on a Hypercyt® cytometer and analyzed in ForeCyt™ (IntelliCyt, Albuquerque, N. Mex.). The mean fluorescence intensities (MFI) were expressed as fold change above isotype control levels (background). FACS binding confirmed that Control I selectively bound to 293/hPRLR expressing cells with MFIs that were 30 fold above background (isotype ctrl) levels and less than 2 fold binding on parental cells.
(§4) Next, the anti-PRLR antibodies were tested via FACS for selective binding to the engineered overexpressing PRLR HEK293 cell lines, as well as to non-expressing HEK293 cells and a native PRLR expressing cell line (T47D).

[5] = target: T4, monkey PRLR on HEK293/mfPRLR cells (Macaca fascicularis, UniProt A0A2K5WXK1); assay: FACS cell surface binding
T4 construct: HA; expressed in transfected cells; host or cells: HEK293
T4 sequence (A0A2K5WXK1 25-619): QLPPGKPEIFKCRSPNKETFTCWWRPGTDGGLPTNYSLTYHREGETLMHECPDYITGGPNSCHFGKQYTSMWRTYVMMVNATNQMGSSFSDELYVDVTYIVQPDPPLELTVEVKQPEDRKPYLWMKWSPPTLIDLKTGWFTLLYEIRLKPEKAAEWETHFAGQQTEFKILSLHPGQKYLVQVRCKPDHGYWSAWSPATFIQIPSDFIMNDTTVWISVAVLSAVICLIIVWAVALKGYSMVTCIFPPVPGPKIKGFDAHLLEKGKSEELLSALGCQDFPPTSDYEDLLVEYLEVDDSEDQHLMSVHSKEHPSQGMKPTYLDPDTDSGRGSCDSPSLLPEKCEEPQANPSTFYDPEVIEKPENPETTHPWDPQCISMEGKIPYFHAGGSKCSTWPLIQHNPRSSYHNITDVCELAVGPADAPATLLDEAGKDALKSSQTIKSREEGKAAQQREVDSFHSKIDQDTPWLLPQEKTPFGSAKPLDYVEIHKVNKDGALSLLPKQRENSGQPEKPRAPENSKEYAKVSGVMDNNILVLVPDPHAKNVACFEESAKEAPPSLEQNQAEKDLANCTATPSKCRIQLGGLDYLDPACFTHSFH
Procedure: as §2, §3, §4

[6] = target: T5, mouse PRLR on HEK293/mPRLR cells (Mus musculus, UniProt Q08501); assay: FACS cell surface binding
T5 construct: HA; expressed in transfected cells; host or cells: HEK293
T5 sequence (Q08501 20-608): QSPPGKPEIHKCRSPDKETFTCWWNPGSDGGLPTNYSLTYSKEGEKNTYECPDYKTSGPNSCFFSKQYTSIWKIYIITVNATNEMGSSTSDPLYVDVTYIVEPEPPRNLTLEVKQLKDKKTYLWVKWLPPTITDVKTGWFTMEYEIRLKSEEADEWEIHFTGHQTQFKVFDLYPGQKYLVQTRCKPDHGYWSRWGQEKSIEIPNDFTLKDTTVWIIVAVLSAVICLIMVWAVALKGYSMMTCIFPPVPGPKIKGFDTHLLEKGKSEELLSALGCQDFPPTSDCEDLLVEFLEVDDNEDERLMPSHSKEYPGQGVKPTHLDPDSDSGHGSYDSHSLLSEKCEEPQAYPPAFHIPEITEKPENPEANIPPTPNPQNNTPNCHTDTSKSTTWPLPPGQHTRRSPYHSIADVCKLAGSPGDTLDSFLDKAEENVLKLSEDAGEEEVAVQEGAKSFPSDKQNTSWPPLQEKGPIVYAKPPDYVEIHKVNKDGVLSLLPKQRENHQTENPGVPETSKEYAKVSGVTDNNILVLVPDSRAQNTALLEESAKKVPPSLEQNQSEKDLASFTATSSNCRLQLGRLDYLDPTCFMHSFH
Procedure: as §2, §3, §4

[7] = target: T6, native PRLR expressing T47D cells (Homo sapiens, UniProt P16471); assay: FACS cell surface binding
T6 construct: a native PRLR expressing cell line (T47D); endogenous in cells; host or cells: T47D
T6 sequence (P16471 25-622): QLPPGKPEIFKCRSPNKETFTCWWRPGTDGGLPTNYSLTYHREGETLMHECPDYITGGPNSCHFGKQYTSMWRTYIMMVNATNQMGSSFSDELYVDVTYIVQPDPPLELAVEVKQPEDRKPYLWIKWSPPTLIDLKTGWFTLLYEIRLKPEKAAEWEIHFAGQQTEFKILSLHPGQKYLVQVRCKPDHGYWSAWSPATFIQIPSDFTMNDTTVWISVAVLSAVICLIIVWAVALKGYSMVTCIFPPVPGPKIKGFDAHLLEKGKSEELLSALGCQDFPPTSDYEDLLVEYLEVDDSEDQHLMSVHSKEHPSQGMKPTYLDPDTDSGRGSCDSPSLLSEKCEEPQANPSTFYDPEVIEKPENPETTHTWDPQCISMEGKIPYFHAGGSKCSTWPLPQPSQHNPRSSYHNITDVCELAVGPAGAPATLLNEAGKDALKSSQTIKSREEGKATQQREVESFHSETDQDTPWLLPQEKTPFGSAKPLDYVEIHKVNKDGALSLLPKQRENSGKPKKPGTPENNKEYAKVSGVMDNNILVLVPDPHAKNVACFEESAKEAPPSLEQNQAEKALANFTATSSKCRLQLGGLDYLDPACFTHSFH
Procedure: as §3, §4

| Molecule | ka ([1]; 25° C.) [M/s] | kd ([1]; 25° C.) [s⁻¹] | ka ([1]; 37° C.) [M/s] | kd ([1]; 37° C.) [s⁻¹] | ka ([2]; 25° C.) [M/s] | kd ([2]; 25° C.) [s⁻¹] | ka ([2]; 37° C.) [M/s] | kd ([2]; 37° C.) [s⁻¹] | ka ([3]; 25° C.) [M/s] | kd ([3]; 25° C.) [s⁻¹] | ka ([3]; 37° C.) [M/s] | kd ([3]; 37° C.) [s⁻¹] | FACS Cell Binding (HEK293 parental cells) [Fold Above Background] | FACS Cell Binding [4] [Fold Above Background] | FACS Cell Binding [5] [Fold Above Background] | FACS Cell Binding [6] [Fold Above Background] | FACS Cell Binding [7] [Fold Above Background] |
| --- | --- | --- | --- | --- | --- | --- | --- | --- | --- | --- | --- | --- | --- | --- | --- | --- | --- |
| B1 | 189000 | 0.000341 | 273000 | 0.0013 | 264000 | 8.77e-05 | 491000 | 0.000138 | 288000 | 0.000413 | 411000 | 0.00161 | 1 | 37 | 27 | 1 | 38 |
| B2 | 437000 | 0.000151 | 802000 | 0.000359 | 680000 | 5.46e-05 | 1.22e+06 | 0.00011 | 761000 | 0.000144 | 1.08e+06 | 0.000336 | 2 | 32 | 27 | 2 | 34 |
